Results from the supplement of paper PMC11880418.
Where a name gives a salt, the structure may show the parent alone. Some of the results follow. The data scatter; read single values as rough.

system: MKN45; test: ALDHbr (CSC) cell proportion score relative to DMSO vehicle (ratio to DMSO); breast (SUM159) / gastric (MKN45) / pancreatic (PANC1) / colon cancer lines; ALDHbr cells have high ALDH activity and are rich in cancer stem cells (CSC); higher = more CSC (ALDHbr) cells remaining; conditions: 10 µM; 72 h
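Also: High-content imaging of ALDEFLUOR-stained cells with Hoechst-labelled nuclei in 384-well plates, triplicate wells, scored as Z-score against 0.1% DMSO vehicle, negative meaning fewer ALDHbr cells.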

SMILES	ALDHbr
Cc1c(N(C)CS(=O)(=O)O)c(=O)n(-c2ccccc2)n1C [Dipyrone]	1.08
C=CCN1CCCC1CNC(=O)c1cc2nn[nH]c2cc1OC (centres undefined) [Alizapride hydrochloride]	1.1
CCCCOC(=O)c1ccc(O)cc1 [Butylparaben]	0.801
CC1CCc2cc(F)cc3c(=O)c(C(=O)O)cn1c23 (centres undefined) [Flumequine]	1.02
N[C@@H](C(=O)N[C@@H]1C(=O)N2C(C(=O)O)=C(Cl)CS[C@H]12)c1ccccc1 [Cefaclor hydrate]	1.22
CNCCCC1c2ccccc2C=Cc2ccccc21 [Protriptyline hydrochloride]	0.903
CN(C)CCC=C1c2ccccc2C=Cc2ccccc21 [Cyclobenzaprine hydrochloride]	0.964
COc1cc(C(=O)NC2CCCNC2)cc(OC)c1OC (centres undefined) [Troxipide]	0.972
CCCN(CCC)C(=O)C(CCC(=O)O)NC(=O)c1ccccc1 (centres undefined) [Proglumide]	1.41
CC(=O)Nc1c(I)c(NC(C)=O)c(I)c(C(=O)O)c1I [Diatrizoic acid dihydrate]	1.17
Cc1nc2n(c(=O)c1CCN1CCC(c3noc4cc(F)ccc34)CC1)CCCC2 [Risperidone]	0.784
Cc1cccc(N(C)C(=S)Oc2ccc3ccccc3c2)c1 [Tolnaftate]	0.302
COc1cc2c(cc1OC)C(=O)C(CC1CCN(Cc3ccccc3)CC1)C2 (centres undefined) [Donepezil hydrochloride]	1.18
CCCc1cc(=O)[nH]c(=S)[nH]1 [Propylthiouracil]	0.992
